# Data published in the supplement of paper PMC11417369.
# ± gives the standard deviation of the averaged measurements. The list shows a part of the results.
# System: PfAP2-LT AP2 domain (GST-tagged)
# Test: gcPBM binding intensity (ln(normalized median fluorescence intensity)); higher = stronger DNA binding
# Summary of the method: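 GST-fused DNA-binding domains of P. falciparum, expressed in E. coli, were applied at about 25 μg on average for 1 h to an Agilent 4 × 180k array of primer-extended double-stranded 36-bp intergenic genomic probes and negative controls. Binding intensity is the highest Masliner-normalised natural-log median intensity across replicate spots of either probe orientation, measured with Alexa488 anti-GST antibody and a 488 nm scan.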
row,Sequence,gcPBM binding intensity (ln)
1,TGATAACCTCACAAATGTACGTACGGGGCTAGCATT [XGTACX_site4157],8.99 ± 0.31
2,ATATCTATAATAAATACACACATTTATATAGATAAA [CACACA_site7518],8.79 ± 0.35
3,AACAGCATTATTTCTTATTTTTTTTTTGATATATTT [GTGCAC_negctrl_site114],8.61 ± 0.47
4,GTTATATTATTCATACGTACCTATATTTCTATTAAC [XGTACX_site3447],9.03 ± 0.46
5,AAACTTGACAGACACACACACACATATATAAAAAAA [CACACA_site757],9.8 ± 0.35
6,CTTTCCTATTTGACACGTACGAAATTTTACATAAAA [XGTACX_site6689],8.51 ± 0.39
7,AAATATATATACACATATATATATATATATATATAT [CACACA_negctrl_site1742],9.72 ± 0.19
8,TATGAAATATCGTGCACACACGAATAATATAAGAAT [CACACA_site4842],9.34 ± 0.4
9,AAAATAAAAAATATAACACACAATAAATATTTATAT [CACACA_site6986],8.93 ± 0.4
10,ACATGAAATGTTTAAAGTACATATATAAATTTTTTT [XGTACX_site4519],8.5 ± 0.44
11,AAATGTGAAGTGAATACACACCTAATAAATATAACA [CACACA_site5727],9.01 ± 0.42
12,TACTGATCTTTCTAGGTGCGCTGCTACCATTATCGT [GTGCAC_site9538],8.99 ± 0.49
13,ATATATAGATAATCAAGTACATAACAAGATATAAGA [XGTACX_site2186],8.99 ± 0.51
14,TATATTTAATTATTATGTACTTATAATTTTTGAAAG [XGTACX_site8548],8.42 ± 0.35
15,TATGTATTTATCCACTTACATTTTTACTTTTCCATT [CACACA_negctrl_site1141],8.89 ± 0.51
16,TATATATATAATATTACACACATATATTTATATTTT [CACACA_site3460],8.85 ± 0.49
17,TATGGTATATACAACACACACACATATGTATAAATA [CACACA_site6562],9.64 ± 0.33
18,ATTTATACATGCTAATGTACTTATTTCACCTATATC [XGTACX_site3120],9.04 ± 0.46
19,CAAGTATTAATTATGTGTACATATATATATATATAT [XGTACX_site5311],9.74 ± 0.22
20,TTAATATTGTATTTCACACATAATTTAATATACTCA [CACACA_site5678],8.66 ± 0.49
21,TATAATGAGGATAATAGTACATATGAATACAAAAAA [XGTACX_site3665],8.93 ± 0.52
22,TACACAAGCAGACACACACACATATAGATTTATATA [CACACA_site6715],9.65 ± 0.35

row,Sequence,gcPBM binding intensity (ln)
1,GCCATAAAAATATATACACACATAAAAAAAAATTAT [CACACA_site1176],9.13 ± 0.46
2,TCTTAAGGAAAAGAGTGTACAGAAATTTTTATTAAC [XGTACX_site6139],8.55 ± 0.5
3,AATTATATTACAAACTGTACATATATAATTTGTCCA [XGTACX_site6009],8.68 ± 0.42
4,ATCCGAGTGTGAAATACACACATGATAATGTGAATG [CACACA_site919],9.29 ± 0.4
5,TTAAATAAGTAATTATGTACATATAATATTCTTTAT [XGTACX_site5280],8.6 ± 0.42
6,TATAGGAATATATGGTGTACCTATAAATCTGACATA [XGTACX_site8111],8.73 ± 0.42
7,ATTTATATATTTATACGTACTTATATATTGTTACAT [XGTACX_site6254],9.21 ± 0.46
8,AAAAATAAAAATTGCACACTAAAAAATTACGCACGA [CACACA_site3418],8.94 ± 0.35
9,TAGAAAATATAAAAATGTACGTAAATAAAATGTGCA [XGTACX_site3459],9.01 ± 0.5
10,TTCAATGCATGTCCATGTACATATAAAAAAAAATAC [XGTACX_site1597],8.71 ± 0.49
11,TTTTTCTTTCTTTCTTTTTTAATATTACAAATGTAT [XGTACX_negctrl_site267],8.49 ± 0.59
12,TTATTAAAACAAAATGTACACACATATAATTTAATG [CACACA_site8193],8.78 ± 0.45
13,CACCCTTTACACAAGGTGCATACTTTATTATATTTT [GTGCAC_site9778],8.9 ± 0.46
14,TGTTGGCAGGTGAATGCATGCATATAAGTCTATCTG [TGCATGCA_site781],9.06 ± 0.47
15,AAAGTAGAATATCCCCTACACACCCAAATAATTTAC [CACACA_site1255],9.53 ± 0.16
16,AATATTTTAATGCACACACACAAAAAAAAAAAAAAA [CACACA_site7374],9.18 ± 0.33
17,AATCCTTTACGACACACACACAAAAAAAAAAAAAAA [CACACA_site6449],9.27 ± 0.44
18,TTAAAAAAATTAATATGTACATATATTTATATATAT [XGTACX_site5317],8.51 ± 0.49
19,TATATATTTTATTTATGTACGAAAATAAATTAAATT [XGTACX_site3628],8.32 ± 0.34
20,TATTAAAAAGAGGTGACACACACATATAAATCTAAA [CACACA_site9243],9.12 ± 0.42
21,ACATCATAGAAAAATTGATATATATATATATATATA [CACACA_negctrl_site130],10.01 ± 0.035
22,TCCACAAAGCATGTAACACACAACATATAAGACATA [CACACA_site972],9.22 ± 0.47

row,Sequence,gcPBM binding intensity (ln)
1,AACCACATACCTATAACACACATATACAATATAGAT [CACACA_site7023],9.35 ± 0.42
2,ATTGTAATAAATTGTAGTACATGTAAGGTTTTATTT [XGTACX_site1005],9.09 ± 0.36
3,ATAACTTATTTTTAAAGTACATTATTATATATATAT [XGTACX_site1620],8.68 ± 0.49
4,TTAAGAATATTTTCATGTACTCATTTTTTTTGTTAT [XGTACX_site1814],8.69 ± 0.45
5,AATAAAAATATATCCACACACATATATAAATATGTA [CACACA_site6415],9.22 ± 0.32
6,ATTACATATGTGAGTTGTACTATAAATATATAATAT [XGTACX_site3718],8.81 ± 0.47
7,AAACTTATGTTTACATGTACAGAACTTTATATTATG [XGTACX_site4843],8.85 ± 0.42
8,TATTATATATATAGGTGTACGCATTTGTCCTTTATA [XGTACX_site1385],8.93 ± 0.43
9,TCGAACATTAACATAACACACATATAGATTTATATA [CACACA_site7380],8.98 ± 0.38
10,TTATTCTTTAACTAAAATTATATATATATATTATAC [CACACA_negctrl_site1597],8.56 ± 0.5
11,TTGTATGCTTCCCGACTACATTATGCCATAAATGTA [TGCATGCA_negctrl_site136],8.81 ± 0.28
12,TAAACATTTTTAATTTTGTAAAATTTTAAATAAAAA [XGTACX_negctrl_site612],7.89 ± 0.42
13,TTTTTTATTGTGAAACTGATATTATATTTTTTATAA [GTGCAC_negctrl_site559],8.37 ± 0.49
14,ACAAACAAAGAAAGAACACACATACACAAGATACCT [CACACA_site7353],9.54 ± 0.26
15,TGAATATTTTATGATTGTACATATTATAATAAACAT [XGTACX_site6113],8.59 ± 0.4
16,AAAACAAACATTACACGTACAAAACAAGTTATAGAC [XGTACX_site6320],9.26 ± 0.51
17,TTTTTGATATTAAAGGGTACATTATTTACAAAAAAA [XGTACX_site5284],8.22 ± 0.41
18,CTGCCTTCCATACCCACACACTTCCCATATATTTTA [CACACA_site5491],9.2 ± 0.44
19,ATGCTTTTTTATAAAAGTACATAAAGTTTTTACACT [XGTACX_site7307],8.48 ± 0.47
20,GATCCTGGTTCTTGTGGTACTTGTTCATTTGTTATA [XGTACX_site7164],9.21 ± 0.41
21,ATTCTTTTATTTAGTAGTACATTTGTATTTTATTCA [XGTACX_site5790],8.91 ± 0.45
22,TAAAAAAATTTAACATGTACAAATATTGAAAAGGAC [XGTACX_site7608],8.95 ± 0.41

row,Sequence,gcPBM binding intensity (ln)
1,ATTAAAAAAGAATATACACACCAAAACTGTTTGTTA [CACACA_site4687],8.66 ± 0.37
2,TACAATTCGTAATACACACACATATATATATATATT [CACACA_site3751],9.485 ± 0.092
3,GAAGAATAAATATGCACACATGCATATATTTTTACA [CACACA_site3459],8.88 ± 0.37
4,AGAAAAAAAAAAAAAAAAAAAAAATTGAATATATAT [TGCATGCA_negctrl_site55],8.51 ± 0.41
5,TTTATTATCTTATTCACACACATATATATATATATA [CACACA_site2869],9.54 ± 0.15
6,ATATATTTTTACCATACACACATATAACAAATATAT [CACACA_site7706],9.01 ± 0.4
7,TGTTTTTATAATATTAGTACATAATATACATAATTC [XGTACX_site2787],8.55 ± 0.41
8,AATAAATTAATTTTGGGTACATATATATATATATAT [XGTACX_site3807],9.6 ± 0.31
9,AAATATATATAAATGAGTACTTATGGTAACATATAT [XGTACX_site6362],8.84 ± 0.42
10,AGAGCATAATAAAACACACACATACATACCTATATA [CACACA_site6566],9.68 ± 0.38
11,TTCCACATTTTACAGACACACACAATTTATATTACG [CACACA_site8572],9.16 ± 0.34
12,ATAAATAATTATAATTGTACACATATATATATATAC [XGTACX_site3998],8.91 ± 0.33
13,AAAAAATATTGAAGTACACACATTATGAACTTTTTT [CACACA_site1733],8.78 ± 0.42
14,TATATATATATATATACATGCATATATATAATATAT [TGCATGCA_site763],9.37 ± 0.014
15,TTAAGATCCTAAAAAACACACAATTGTGAATAATAA [CACACA_site3872],8.86 ± 0.39
16,GTAAGTTGTGCATTCACACACATATATATATATATA [CACACA_site3303],9.94 ± 0.11
17,TGATTAAATAAATATATATATTTATATATTATACAG [CACACA_negctrl_site1596],8.34 ± 0.45
18,TATATATATATATATGTGCACTGGACATATTTTTAT [GTGCAC_site9721],9.76 ± 0.2
19,CAAATAAATATTAAAAGTACACACAGATACACTAAT [XGTACX_site3749],9.18 ± 0.35
20,GCTCTATCAAAAAAATGTACACATATTATCATTCAT [XGTACX_site143],8.72 ± 0.47
21,TTTTTATTTAATAGTTGTACATTGAAAAATATGTAT [XGTACX_site3025],8.38 ± 0.47
22,AATATTTATATTTAGTGTACAGAAATAAAAAAAAAA [XGTACX_site6066],8.53 ± 0.49
